Measured values as given in US20240270821A1, “GIP/GLP1/GCG TRI-RECEPTOR AGONISTS AND USES THEREOF” (priority 2023, published 2024).
At least one peptide structure holds a part that was inferred or is arguable (an end, a ring closure or a residue). For at least one compound, name, drawing or mass did not settle the structure. Starred links: 1 amine or outer side, 2 acyl side, 3 side chain; linkers in the order of their positions; H or OH if unused. Non-standard residues stand in square brackets, D forms with d. Residues, ends and D or L forms follow the SMILES beside them. Groups on a side chain read outwards from the residue. *: point of attachment. C18 diacid = O=C(O)CCCCCCCCCCCCCCCCC(=O)*; γGlu = O=C(O)[C@H](CCC(=O)[*:2])N[*:1]; αMe4Pal = C[C@](N)(Cc1ccncc1)C(=O)O; αMeY = C[C@](N)(Cc1ccc(O)cc1)C(=O)O; 4Pal = N[C@@H](Cc1ccncc1)C(=O)O; αMeL = CC(C)C[C@](C)(N)C(=O)O; Orn = NCCC[C@H](N)C(=O)O; Aib = CC(C)(N)C(=O)O

Key:
Format in all cases: cell-based
hGLP-1R [1] = molecular target: T1, hGLP-1R (Homo sapiens, UniProt P43220); test: Functional cAMP activation in the presence of 0.1% casein (no HSA); conditions: in the presence of 0.1% casein (no HSA); geometric mean; read-out: Relative cAMP EC50, hGLP-1R
hGLP-1R [2] = molecular target: T1, hGLP-1R; test: Functional cAMP activity in the presence of 1% HSA; conditions: HEK-293 clonal cell line, in the presence of 1% HSA; geometric mean of relative EC50; read-out: cAMP Rel EC50, hGLP-1R
human GcgR = human GcgR (Homo sapiens, UniProt P47871); test: Functional cAMP activity in the presence of 1% HSA; conditions: HEK-293 clonal cell line, in the presence of 1% HSA; geometric mean of relative EC50; read-out: cAMP Rel EC50, hGcgR
hGIPR [3] = molecular target: T2, hGIPR (Homo sapiens, UniProt P48546); test: Functional cAMP activity in the presence of 1% HSA; conditions: HEK-293 clonal cell line, in the presence of 1% HSA; geometric mean of relative EC50; read-out: cAMP Rel EC50, hGIPR
T2 sequence (P48546 22-466): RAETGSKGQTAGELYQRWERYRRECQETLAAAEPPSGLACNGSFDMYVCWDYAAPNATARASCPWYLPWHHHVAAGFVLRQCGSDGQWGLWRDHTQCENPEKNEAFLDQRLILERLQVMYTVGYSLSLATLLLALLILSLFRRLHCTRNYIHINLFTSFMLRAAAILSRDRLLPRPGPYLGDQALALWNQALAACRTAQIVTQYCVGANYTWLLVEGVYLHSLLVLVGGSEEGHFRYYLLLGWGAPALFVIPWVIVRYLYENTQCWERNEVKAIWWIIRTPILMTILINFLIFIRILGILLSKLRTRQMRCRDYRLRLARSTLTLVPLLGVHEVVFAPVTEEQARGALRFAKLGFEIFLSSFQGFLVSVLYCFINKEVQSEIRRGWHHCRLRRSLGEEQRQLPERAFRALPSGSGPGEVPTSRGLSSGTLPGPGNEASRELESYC

hGcgR = hGcgR (Homo sapiens, UniProt P47871); test: Functional cAMP activation in the presence of 0.1% casein (no HSA); conditions: in the presence of 0.1% casein (no HSA); geometric mean; read-out: Relative cAMP EC50, hGcgR
hGIPR [4] = molecular target: T2, hGIPR; test: as above; conditions: in the presence of 0.1% casein (no HSA); geometric mean; read-out: Relative cAMP EC50, hGIPR

T1 sequence (P43220 24-463): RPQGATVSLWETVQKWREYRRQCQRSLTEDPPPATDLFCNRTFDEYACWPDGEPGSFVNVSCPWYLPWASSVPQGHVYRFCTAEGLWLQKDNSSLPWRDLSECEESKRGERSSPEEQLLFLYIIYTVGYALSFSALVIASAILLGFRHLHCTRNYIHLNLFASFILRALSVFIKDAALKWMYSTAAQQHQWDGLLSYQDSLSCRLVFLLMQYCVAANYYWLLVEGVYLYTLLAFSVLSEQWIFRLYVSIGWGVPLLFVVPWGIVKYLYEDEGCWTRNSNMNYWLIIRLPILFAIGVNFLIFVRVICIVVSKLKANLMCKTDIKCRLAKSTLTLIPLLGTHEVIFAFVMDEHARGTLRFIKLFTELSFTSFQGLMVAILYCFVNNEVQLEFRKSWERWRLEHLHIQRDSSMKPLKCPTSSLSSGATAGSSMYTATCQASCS
hGcgR, sequence (P47871 26-477): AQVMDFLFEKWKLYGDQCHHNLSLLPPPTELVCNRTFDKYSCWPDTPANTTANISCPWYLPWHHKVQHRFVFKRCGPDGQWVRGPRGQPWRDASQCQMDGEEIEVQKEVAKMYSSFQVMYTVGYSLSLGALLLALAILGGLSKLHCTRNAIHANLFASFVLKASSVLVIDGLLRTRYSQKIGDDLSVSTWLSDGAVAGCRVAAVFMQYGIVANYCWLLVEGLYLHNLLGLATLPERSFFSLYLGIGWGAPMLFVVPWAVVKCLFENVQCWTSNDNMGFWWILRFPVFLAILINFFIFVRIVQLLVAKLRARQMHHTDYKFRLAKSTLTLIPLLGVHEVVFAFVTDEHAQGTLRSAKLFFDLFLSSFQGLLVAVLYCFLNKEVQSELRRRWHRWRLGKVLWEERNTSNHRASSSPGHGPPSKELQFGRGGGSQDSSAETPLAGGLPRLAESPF
human GcgR, sequence (P47871 26-477): as above

Structure (SMILES) | EC50 (hGLP-1R [1]) | EC50 (hGLP-1R [2]) | EC50 (human GcgR) | EC50 (hGIPR [3]) | EC50 (hGcgR) | EC50 (hGIPR [4])
CC[C@H](C)[C@H](NC(=O)[C@H](CC(C)C)NC(=O)[C@](C)(Cc1ccc(O)cc1)NC(=O)[C@H](CCC(N)=O)NC(=O)[C@@H](NC(=O)[C@H](Cc1ccccc1)NC(=O)[C@H](C)NC(=O)[C@](C)(Cc1ccncc1)NC(=O)[C@H](CCC(N)=O)NC(=O)[C@H](C)NC(=O)[C@H](CCCCNC(=O)[C@@H](CCC(=O)O)NC(=O)CC[C@H](NC(=O)CCCCCCCCCCCCCCCCC(=O)O)C(=O)O)NC(=O)[C@H](CCCN)NC(=O)[C@H](CC(=O)O)NC(=O)[C@H](CC(C)C)NC(=O)[C@](C)(CC(C)C)NC(=O)[C@H](CCC(N)=O)NC(=O)[C@H](CO)NC(=O)[C@H](Cc1ccncc1)NC(=O)[C@H](CC(=O)O)NC(=O)[C@H](CO)NC(=O)[C@@H](NC(=O)[C@H](Cc1ccccc1)NC(=O)[C@@H](NC(=O)CNC(=O)[C@H](CCC(N)=O)NC(=O)C(C)(C)NC(=O)[C@@H](N)Cc1ccc(O)cc1)[C@@H](C)O)[C@@H](C)O)[C@@H](C)CC)C(=O)N[C@@H](CCC(=O)O)C(=O)NCC(=O)NCC(=O)N1CCC[C@H]1C(=O)N[C@@H](CO)C(=O)N[C@@H](CO)C(=O)NCC(=O)N[C@@H](C)C(=O)N1CCC[C@H]1C(=O)N1CCC[C@H]1C(=O)N1CCC[C@H]1C(=O)N[C@@H](CO)C(=O)NCC(=O)N[C@@H](CO)C(=O)N[C@@H](CCC(=O)O)C(=O)N[C@@H](CCC(=O)O)C(=O)N[C@@H](CCC(=O)O)C(N)=O [Example 1073] (H-Y[Aib]QGTFTSD[4Pal]SQ[αMeL]LD[Orn]K([dE-γGlu-C18 diacid])AQ[αMe4Pal]AFIQ[αMeY]LIEGGPSSGAPPPSGSEEE-NH2) | 1.09 nM | 114 nM | 1490 nM | 15.7 nM | 12.3 nM | 0.201 nM
CC[C@H](C)[C@H](NC(=O)[C@H](CC(C)C)NC(=O)[C@](C)(Cc1ccc(O)cc1)NC(=O)[C@H](CCC(=O)O)NC(=O)[C@@H](NC(=O)[C@H](Cc1ccccc1)NC(=O)[C@H](C)NC(=O)[C@](C)(Cc1ccncc1)NC(=O)[C@H](CCC(N)=O)NC(=O)[C@H](C)NC(=O)[C@H](CCCCNC(=O)[C@@H](CCC(=O)O)NC(=O)CC[C@H](NC(=O)CCCCCCCCCCCCCCCCC(=O)O)C(=O)O)NC(=O)[C@H](CCCN)NC(=O)[C@H](CC(=O)O)NC(=O)[C@H](CC(C)C)NC(=O)[C@](C)(CC(C)C)NC(=O)[C@H](CCC(N)=O)NC(=O)[C@H](CO)NC(=O)[C@H](Cc1ccncc1)NC(=O)[C@H](CC(=O)O)NC(=O)[C@H](CO)NC(=O)[C@@H](NC(=O)[C@H](Cc1ccccc1)NC(=O)[C@@H](NC(=O)CNC(=O)[C@H](CCC(N)=O)NC(=O)C(C)(C)NC(=O)[C@@H](N)Cc1ccc(O)cc1)[C@@H](C)O)[C@@H](C)O)[C@@H](C)CC)C(=O)N[C@@H](C)C(=O)NCC(=O)NCC(=O)N1CCC[C@H]1C(=O)N[C@@H](CO)C(=O)N[C@@H](CO)C(=O)NCC(=O)N[C@@H](C)C(=O)N1CCC[C@H]1C(=O)N1CCC[C@H]1C(=O)N1CCC[C@H]1C(=O)N[C@@H](CO)C(=O)NCC(=O)N[C@@H](CO)C(=O)N[C@@H](CCC(=O)O)C(=O)N[C@@H](CCC(=O)O)C(=O)N[C@@H](CCC(=O)O)C(N)=O [Example 1075] | 0.878 nM | 109 nM | 3020 nM | 9.88 nM | 25 nM | 0.0778 nM
CC[C@H](C)[C@H](NC(=O)[C@H](CC(C)C)NC(=O)[C@](C)(Cc1ccc(O)cc1)NC(=O)[C@H](CCC(N)=O)NC(=O)[C@@H](NC(=O)[C@H](Cc1ccccc1)NC(=O)[C@H](C)NC(=O)[C@](C)(Cc1ccncc1)NC(=O)[C@H](CCC(N)=O)NC(=O)[C@H](C)NC(=O)[C@H](CCCCNC(=O)[C@@H](CCC(=O)O)NC(=O)CC[C@H](NC(=O)CCCCCCCCCCCCCCCCC(=O)O)C(=O)O)NC(=O)[C@H](CCCN)NC(=O)[C@H](CC(=O)O)NC(=O)[C@H](CC(C)C)NC(=O)[C@](C)(CC(C)C)NC(=O)[C@H](CCC(N)=O)NC(=O)[C@H](CO)NC(=O)[C@H](Cc1ccncc1)NC(=O)[C@H](CC(=O)O)NC(=O)[C@H](CO)NC(=O)[C@@H](NC(=O)[C@H](Cc1ccccc1)NC(=O)[C@@H](NC(=O)CNC(=O)[C@H](CCC(N)=O)NC(=O)C(C)(C)NC(=O)[C@@H](N)Cc1ccc(O)cc1)[C@@H](C)O)[C@@H](C)O)[C@@H](C)CC)C(=O)N[C@@H](CCC(=O)O)C(=O)NCC(=O)NCC(=O)N1CCC[C@H]1C(=O)N[C@@H](CO)C(=O)N[C@@H](CO)C(=O)NCC(=O)N[C@@H](C)C(=O)N1CCC[C@H]1C(=O)N1CCC[C@H]1C(=O)N1CCC[C@H]1C(=O)N[C@@H](CO)C(=O)NCC(=O)N[C@@H](CO)C(=O)N[C@@H](CCC(=O)O)C(=O)N[C@@H](CCC(=O)O)C(=O)N[C@@H](CCC(=O)O)C(N)=O [Example 1076] (H-Y[Aib]QGTFTSD[4Pal]SQ[αMeL]LD[Orn]K([dE-γGlu-C18 diacid])AQ[αMe4Pal]AFIQ[αMeY]LIEGGPSSGAPPPSGSEEE-NH2; N-terminus assumed) | 1.47 nM | 187 nM | 1650 nM | 20.2 nM | 59 nM | 0.174 nM
CC[C@H](C)[C@H](NC(=O)[C@H](CC(C)C)NC(=O)[C@](C)(Cc1ccc(O)cc1)NC(=O)[C@H](CCC(=O)O)NC(=O)[C@@H](NC(=O)[C@H](Cc1ccccc1)NC(=O)[C@H](C)NC(=O)[C@](C)(Cc1ccncc1)NC(=O)[C@H](CCC(N)=O)NC(=O)[C@H](C)NC(=O)[C@H](CCCCNC(=O)[C@H](CCC(=O)O)NC(=O)[C@H](CCC(=O)O)NC(=O)CC[C@H](NC(=O)CC[C@H](NC(=O)CCCCCCCCCCCCCCCCC(=O)O)C(=O)O)C(=O)O)NC(=O)[C@H](CCCN)NC(=O)[C@H](CC(=O)O)NC(=O)[C@H](CC(C)C)NC(=O)[C@](C)(CC(C)C)NC(=O)[C@H](CCC(N)=O)NC(=O)[C@H](CO)NC(=O)[C@H](Cc1ccncc1)NC(=O)[C@H](CC(=O)O)NC(=O)[C@H](CO)NC(=O)[C@@H](NC(=O)[C@H](Cc1ccccc1)NC(=O)[C@@H](NC(=O)CNC(=O)[C@H](CCC(N)=O)NC(=O)C(C)(C)NC(=O)[C@@H](N)Cc1ccc(O)cc1)[C@@H](C)O)[C@@H](C)O)[C@@H](C)CC)C(=O)N[C@@H](C)C(=O)NCC(=O)NCC(=O)N1CCC[C@H]1C(=O)N[C@@H](CO)C(=O)N[C@@H](CO)C(=O)NCC(=O)N[C@@H](C)C(=O)N1CCC[C@H]1C(=O)N1CCC[C@H]1C(=O)N1CCC[C@H]1C(=O)N[C@@H](CO)C(=O)NCC(=O)N[C@@H](CO)C(=O)N[C@@H](CCC(=O)O)C(=O)N[C@@H](CCC(=O)O)C(=O)N[C@@H](CCC(=O)O)C(N)=O [Example 1080] | 1.59 nM | 281 nM | 2820 nM | 18.2 nM | 20.9 nM | 0.176 nM
